The results in this text go back to the RNAGym collection of RNA variant scans (doi:10.1101/gad.245936.114).

This sample is rich in variants without activity. Where only a bound is given, the exact number is not on record here.

First the molecules themselves.
B1: tRNA (parent)
chain: CUCUCGGUAGCCAAGUUGGUUUAAGGCGCAAGACUUUAAUUUAUCACUACGAAAUCUUGAGAUCGGGCGUUCGACUCGCCCCCGGGAGAUUUUUUCCUCGAGCAA

The variants in the data set derive from B1. The data set can be described thus: nonsense suppression (GFP-seq) (ratio to wild type); higher = more function; SUP4oc tRNA, yeast GFP reporter sort-seq. The method in brief:
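Yeast were grown in raffinose/galactose medium with 80 mg/L adenine, each strain bearing a genome-integrated ochre-suppressor tRNA variant from a ~3% random-mutation library, a galactose-driven GFP ochre reporter, and RFP. After sorting into GFP/RFP bins, every bin was sequenced on an Illumina platform at phred ≥30. The GFPSEQ value, a measure of nonsense suppression, is the weighted bin median GFP/RFP relative to the unmutated parent tRNA, using each variant's estimated cell share per bin as the weight. Only variants with ≥100 reads and ≥30 cells were included.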
Consider C5G A23C G67U A89G, for which the nonsense suppression was ≤ 0.026.
In the case of U35A G66A G84C, the nonsense suppression is ≤ 0.026.
With G65U, the nonsense suppression is ≤ 0.026.
Regarding C3G G6U C34A A62U G86U, the nonsense suppression is ≤ 0.026.
As to C27G C80G A87C, the nonsense suppression was ≤ 0.026.
As to A23G G84A, the nonsense suppression was ≤ 0.026.
The figure for U21G C77G C79A C82U A87C is ≤ 0.026; for C3U U22C it is 0.304.
G10A A14U A87U: the nonsense suppression was ≤ 0.026.
Consider G10U U55A G67C, for which the nonsense suppression was ≤ 0.026.
As to C11A G86C, the nonsense suppression was ≤ 0.026.
Turning to C72U A74C C77A, the nonsense suppression was ≤ 0.026.
G15A U21C C82A: the nonsense suppression was ≤ 0.026.
The figure for A54C C80G is 0.0733; for C3A C72G C80U C83G G86A it is ≤ 0.026.
As for C1A A14G, the figure is ≤ 0.026; as for A9U A54C G69A U71G, ≤ 0.026.
Turning to U4A A62C, the nonsense suppression is ≤ 0.026.
Consider U2A G69U U71G, for which the nonsense suppression is ≤ 0.026.
As for A31C U70A C72G, the nonsense suppression was ≤ 0.026.
Take U57A C82G: the nonsense suppression is ≤ 0.026.
As for U16G U21C G84A, the figure is ≤ 0.026.
Consider U17G U70C, for which the nonsense suppression was ≤ 0.026.
Take C5U U21A A23G U70A: the nonsense suppression was ≤ 0.026.
As for U17G A24G U70A, the nonsense suppression was ≤ 0.026.
For A9G U16A G59U G86C, the nonsense suppression was ≤ 0.026.
With A13C G86U, the nonsense suppression is ≤ 0.026.
For U17G G59C G65A, the nonsense suppression is ≤ 0.026.
The figure for U2A C3U G78U C81G is ≤ 0.026; for A62G C64U it is ≤ 0.026; for C1A C12U A13U A14C G59A it is ≤ 0.026.
As for C3A G6A, the nonsense suppression was ≤ 0.026.
As to A13C C56G, the nonsense suppression is ≤ 0.026.
For the variant C68G C77U G84C, the nonsense suppression was ≤ 0.026.
As for U4C U63C U71A, the figure is ≤ 0.026; as for A54U U71C A87C, ≤ 0.026; as for C5U G88U, ≤ 0.026.
Regarding A24C G32U U71C, the nonsense suppression is ≤ 0.026.
C29U C77G: the nonsense suppression is 0.0454.
The figure for A54U C83A is ≤ 0.026; for G7C A9U C82U it is ≤ 0.026.
As for C27U G32C C77G, the nonsense suppression was ≤ 0.026.
The figure for U22C A33G C81G is ≤ 0.026.
The figure for U8G G32U is ≤ 0.026; for C3A C12G G18U U20G G61U U70G C75G it is ≤ 0.026.
Regarding C56A C81U, the nonsense suppression was ≤ 0.026.
For the variant C1U U8A G15C C72G G88A, the nonsense suppression was ≤ 0.026.
The figure for G26C C34U G61A C82A G85C G86A is ≤ 0.026; for G18U U22G it is ≤ 0.026; for C34G C68G C77U it is ≤ 0.026.
The figure for U21A C29G G84U is ≤ 0.026; for U2G A87U it is 0.655.
Take A9U U57C U70C: the nonsense suppression was ≤ 0.026.
G6A G78C: the nonsense suppression was ≤ 0.026.
Consider A24U G25C A54U C81A G85A, for which the nonsense suppression was ≤ 0.026.
Consider A14U U16A U63A, for which the nonsense suppression was ≤ 0.026.
The figure for U8C A9U C34G C68U is ≤ 0.026; for U8G G19A C81A G85A it is ≤ 0.026; for C1U U4A G78A it is ≤ 0.026.
As to C5G C56G U58C C79A, the nonsense suppression was ≤ 0.026.
As for U58A G61U A62U G85U, the nonsense suppression is ≤ 0.026.
The figure for G15C U22A A31G A54C is ≤ 0.026; for C1G G15U U21G G69U it is ≤ 0.026.
For G25A A30G, the nonsense suppression is ≤ 0.026.
As to G65C G69A, the nonsense suppression was ≤ 0.026.
As for U8A A54G A74C C75G, the figure is ≤ 0.026; as for C29A G73A, ≤ 0.026.
Turning to G7C C11U A30G, the nonsense suppression was ≤ 0.026.
With A30U U35G C79G G86U, the nonsense suppression is ≤ 0.026.
Turning to A14U C29U U55G C83G, the nonsense suppression is ≤ 0.026.
With U16A G18C C82G, the nonsense suppression is ≤ 0.026.
On to C56G U58C G66C U70C, for which the nonsense suppression is ≤ 0.026.
Take A30G U76A: the nonsense suppression worked out at 0.043.
On to G85U G86U, for which the nonsense suppression is ≤ 0.026.
As for U57C U63C C64G G65U, the nonsense suppression was ≤ 0.026.
As for C1G U2C G18U, the nonsense suppression is ≤ 0.026.
Take U20A A23U C56G G61U G65A: the nonsense suppression was ≤ 0.026.
As for G69C C82G, the figure is ≤ 0.026; as for G67A C80U, 0.0261.
On to U35C A62G, for which the nonsense suppression was ≤ 0.026.
Consider G25U C34U, for which the nonsense suppression was ≤ 0.026.
Regarding C5A G59A C64G, the nonsense suppression was ≤ 0.026.
As for G32A U35G, the nonsense suppression was ≤ 0.026.
Take C3A A33C: the nonsense suppression was ≤ 0.026.
For C29G A33U A62G, the nonsense suppression was ≤ 0.026.
The figure for C5G G86C is ≤ 0.026; for G10U G84A it is ≤ 0.026.
On to A33G C34U, for which the nonsense suppression was ≤ 0.026.
Regarding A23U G25C C34A U55C, the nonsense suppression is ≤ 0.026.
As to C12U U57G G86C, the nonsense suppression was ≤ 0.026.
On to A23G A31C A60G, for which the nonsense suppression is ≤ 0.026.
As for C5A G25A G73C, the nonsense suppression is ≤ 0.026.
As to C3A A13C A30G G67C G84C, the nonsense suppression is ≤ 0.026.
As for A9G G18C C34G U76C, the figure is ≤ 0.026; as for C5U G26C G65C U76A, ≤ 0.026; as for G15U A24G G86C, ≤ 0.026.
The figure for C11A G32U U76G C77G is ≤ 0.026; for U16G G88U it is ≤ 0.026; for A23G G67C it is ≤ 0.026.
In the case of C11U A30C U58G A89U, the nonsense suppression is ≤ 0.026.
C11U A23U: the nonsense suppression is ≤ 0.026.
Consider C11A G26C, for which the nonsense suppression was ≤ 0.026.
Regarding C1U U35G, the nonsense suppression is ≤ 0.026.
As for U63G C79A, the figure is ≤ 0.026; as for C3U U8G A24C A31C A60C C80U, ≤ 0.026.
As for C11U C82G, the nonsense suppression was ≤ 0.026.
As for G6C U70A, the nonsense suppression is ≤ 0.026.
On to G59U C79A, for which the nonsense suppression is ≤ 0.026.
On to C27A A89C, for which the nonsense suppression is ≤ 0.026.
In the case of A31C U35G G85A, the nonsense suppression was ≤ 0.026.
Regarding G6A A9U G65C, the nonsense suppression was ≤ 0.026.
The figure for U4G A13G U16C is 0.0797; for U71C U76C it is ≤ 0.026; for A60U C68U it is 1.1.
Regarding G6C U20G, the nonsense suppression is ≤ 0.026.
In the case of A31C C68G G88A, the nonsense suppression was ≤ 0.026.
Consider U4C A23G A33G G67A, for which the nonsense suppression is ≤ 0.026.
As for U4C A9C C82A, the figure is ≤ 0.026; as for U21G C72A C82U, ≤ 0.026; as for C27A G78A, ≤ 0.026.
G61A G86C: the nonsense suppression was ≤ 0.026.
The figure for C1G C12G U22A A31G A60U G67A C77A is ≤ 0.026; for A33U A60U it is 0.204.
As for C5U A23C G61C G69A, the nonsense suppression was ≤ 0.026.
The figure for U17C C77A is ≤ 0.026.
Consider U17G A30G, for which the nonsense suppression was found to be 0.397.
As to C56G G69A, the nonsense suppression was ≤ 0.026.
The figure for C11A A30U C72G is ≤ 0.026.
The figure for U70C G84A is ≤ 0.026.
For the variant C11G U20G, the nonsense suppression was ≤ 0.026.
Consider G25C G73C, for which the nonsense suppression was ≤ 0.026.
On to U8A G32C G59A U71A, for which the nonsense suppression was ≤ 0.026.
As for A62G G67A G88U, the figure is ≤ 0.026; as for U4G G19U G86C, ≤ 0.026.
For the variant C12A U20A A24C G32U C77A, the nonsense suppression was ≤ 0.026.
Consider U16C C79U A89G, for which the nonsense suppression was ≤ 0.026.
Consider G7C A23C G84U, for which the nonsense suppression was ≤ 0.026.
Regarding A33G G61C C75G, the nonsense suppression is ≤ 0.026.
For G59C U63A G66A C68U C72A, the nonsense suppression was ≤ 0.026.
A9G C11G G66A C72U G78A: the nonsense suppression was ≤ 0.026.
Turning to U16A C34G U63C C77U G86C, the nonsense suppression is ≤ 0.026.
For the variant C68G C83G G84A G88A, the nonsense suppression is ≤ 0.026.
Regarding G7A A14C G69C G73U C75U G88C, the nonsense suppression is ≤ 0.026.
For C11G G28A C34U, the nonsense suppression is ≤ 0.026.
The figure for U2G G7U A31G A74U is ≤ 0.026; for U17A G26A it is ≤ 0.026.
Take C12U G32C G78C: the nonsense suppression was ≤ 0.026.
Consider A9G U20A U22G C72U C77U, for which the nonsense suppression is ≤ 0.026.
For A24C G25U C56G A60U, the nonsense suppression is ≤ 0.026.
For G85U G88C, the nonsense suppression is ≤ 0.026.
With C1G C5G U70G A74C, the nonsense suppression was ≤ 0.026.
On to U22G G78U G85A, for which the nonsense suppression stood at 0.788.
Regarding C1G G59C, the nonsense suppression is ≤ 0.026.
As for G69A C80A, the figure is ≤ 0.026; as for G7C G78U, ≤ 0.026.
With A14U G69U C72G G73U G88U, the nonsense suppression was ≤ 0.026.
A9U A31G A60C C81A: the nonsense suppression was ≤ 0.026.
Take U17A G18A U21G A60C C80A: the nonsense suppression is ≤ 0.026.
In the case of G7A A14G G26U, the nonsense suppression was ≤ 0.026.
On to C27G G66U, for which the nonsense suppression is ≤ 0.026.
As for C3A U58G U76A, the nonsense suppression is ≤ 0.026.
As for U17G A33G A62C C64A, the nonsense suppression was ≤ 0.026.
On to C27U U58A G59A, for which the nonsense suppression is ≤ 0.026.
The figure for U22C C79A is ≤ 0.026.
With U2C G59U, the nonsense suppression is ≤ 0.026.
As for A24U C34A G84C, the figure is ≤ 0.026; as for A74G G84C, ≤ 0.026.
